Test results published in PubChem BioAssay AID1347417 (National Center for Advancing Translational Sciences (NCATS), 2020).
The campaign covered roughly 120,000 compounds. About 5,300 (4.4%) were called active. Inconclusive results, whose numbers are uncertain, are shown with a selection of clear calls. Calls follow the shape of the dose curve; as a rule, active = well fitted inhibition curve with a large enough effect; inconclusive = small, poorly fitted or top-dose-only effect; inactive = no such curve, though single readings can be large or run the other way. Potencies of inconclusive entries are doubtful fits and often do not repeat.

Assay: qHTS Primary assay for Inhibitors of Plasmodium falciparum Dd2 growth in vitro; also: nearly all actives have a fitted effect of over 65% in size
Details: P. falciparum Dd2 growth, SYBR Green, 72 h; series mostly up to 28.9 µM
Summary of the method: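 Readout: SYBR Green fluorescence, 485 nm excitation, 535 nm emission, after ~16 h lysis at 37C. Before that, Dd2-infected red cells (2.5% hematocrit) grew 72 h with compound, 29 uM top final concentration.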
Potency is read from the fitted curve at half-maximal effect; tags tell the direction and shape of the fitted curve.

| SMILES | Potency |
| --- | --- |
| Cc1nnc(-c2cc(-c3cccc(N(C)C)c3)ccn2)n1Cc1ccncc1 | inconclusive: 1.41 µM [inhibitor, partial curve] |
| COc1ccc(CN2CCCC3(Cc4ccccc4CNC3=O)C2)c(OC)n1 (configuration not stated) | active: 5.01 µM |
| Cc1ccc(N(Cc2cccs2)C(=O)c2ccc(OC(C)C)cc2)cc1 | inconclusive: 7.94 µM [inhibitor, single point] |
| O=c1c2c(nc3cc(-c4ccccc4)[nH]n13)CN(S(=O)(=O)Cc1cccc(F)c1)CC2 | inconclusive: 11.2 µM [inhibitor, single point] |
| O=C(Cc1ccc(Cl)cc1)NC1CC(=O)N(c2ccc3c(c2)OCCO3)C1 (configuration not stated) | inactive |
| COC1C(=O)N(c2cccc(F)c2)C12CCN(S(=O)(=O)c1ccccc1C)CC2 (configuration not stated) | active: 12.6 µM |
| O=C1C(N2CCN(S(=O)(=O)Cc3ccc(Cl)cc3)CC2)CCN1Cc1cccnc1 (configuration not stated) | inactive |
| COc1ccc(-n2ncc(C(=O)NCc3cccs3)c2C2CCN(C(=O)OC(C)(C)C)CC2)cc1 | inconclusive: 17.8 µM [inhibitor, single point] |
| COc1ccc(-c2cn3c(n2)sc2cc(C(=O)NCCc4ccccc4)ccc23)cc1 | inconclusive: 11.2 µM [inhibitor, single point] |
| COCCN1C(=O)[C@@H]2C[C@@H](CN2Cc2nccn2C)Oc2ccccc21 | inconclusive: 31.6 µM [inhibitor, single point] |
| CC(C)N1CCN(Cc2ccccc2C#Cc2ccccc2)CC1CCO (configuration not stated) | inconclusive: 7.08 µM [inhibitor, partial curve] |
| O=C(OCc1cc(=O)n2nc(C3CC3)sc2n1)c1cccc(NC(=O)c2ccccc2Cl)c1 | inconclusive: 3.98 µM [inhibitor, single point] |
| CCC(=O)N1CCCc2cc(S(=O)(=O)N3CCC(C(=O)NC4CCC(C)CC4)CC3)ccc21 (configuration not stated) | inconclusive: 10 µM [inhibitor, single point] |
| COCCN1C(=O)[C@@H]2C[C@@H](CN2Cc2ccc(Cl)cc2)Oc2ccccc21 | inconclusive: 1.12 µM [inhibitor, full curve, poor fit] |
| O=C(Cc1cccc(C(F)(F)F)c1)N1CCCc2ncc(C(=O)N3CCCC[C@@H]3c3ccccc3)cc21 | inconclusive: 10 µM [inhibitor, partial curve, poor fit] |
| O=C(Nc1ccccc1)N1CCN(c2nc3ncccc3o2)CC1 | inconclusive: 14.1 µM [inhibitor, single point] |
| CC(C)C(=O)N1CCC(Cc2noc(-c3ccccc3)n2)C1 (configuration not stated) | inconclusive: 5.62 µM [inhibitor, partial curve, poor fit] |
